Data taken from the CheMixHub viscosity set.
Values joined by “and” are separate entries in the source; they are usually repeats but may differ in a detail not shown here. Equal entries are not always repeated. ± gives the uncertainty stated by the source. This continues a long series; more values of the same kind are listed elsewhere.

Experiment: xn = mol fraction of the nth substance listed

SMILES: CC(C)=O + O
- viscosity (293.15 K, 101 kPa, x1 = 0.01): 1.089 ± 0.029 mPa·s
- viscosity (293.15 K, 101 kPa, x1 = 0.02): 1.152 ± 0.031 mPa·s
- viscosity (293.15 K, 101 kPa, x1 = 0.0251): 1.199 ± 0.0094 mPa·s
- viscosity (293.15 K, 101 kPa, x1 = 0.04): 1.306 ± 0.035 mPa·s
- viscosity (293.15 K, 101 kPa, x1 = 0.0587): 1.408 ± 0.011 mPa·s
- viscosity (293.15 K, 101 kPa, x1 = 0.06): 1.426 ± 0.038 mPa·s
- viscosity (293.15 K, 101 kPa, x1 = 0.1): 1.547 ± 0.041 mPa·s
- viscosity (293.15 K, 101 kPa, x1 = 0.1463): 1.583 ± 0.012 mPa·s
- viscosity (293.15 K, 101 kPa, x1 = 0.1807): 1.549 ± 0.012 mPa·s
- viscosity (293.15 K, 101 kPa, x1 = 0.2525): 1.378 ± 0.011 mPa·s
- viscosity (293.15 K, 101 kPa, x1 = 0.3055): 1.225 ± 0.0097 mPa·s
- viscosity (293.15 K, 101 kPa, x1 = 0.477): 0.827 ± 0.0077 mPa·s
- viscosity (293.15 K, 101 kPa, x1 = 0.484): 0.7762 ± 0.0074 mPa·s
- viscosity (293.15 K, 101 kPa, x1 = 0.582): 0.6233 ± 0.0055 mPa·s
- viscosity (293.15 K, 101 kPa, x1 = 0.63): 0.5528 ± 0.005 mPa·s
- viscosity (293.15 K, 101 kPa, x1 = 0.775): 0.4213 ± 0.004 mPa·s
- viscosity (293.15 K, 101 kPa, x1 = 0.892): 0.3534 ± 0.0035 mPa·s
- viscosity (293.15 K, 101 kPa, x1 = 0.901): 0.3528 ± 0.0035 mPa·s
- viscosity (293.15 K, 101 kPa, x2 = 0.008): 0.3207 ± 0.0033 mPa·s
- viscosity (298 K, 101.3 kPa, x1 = 0.033): 1.092 ± 0.018 mPa·s
- viscosity (298 K, 101.3 kPa, x1 = 0.072): 1.272 ± 0.02 mPa·s
- viscosity (298 K, 101.3 kPa, x1 = 0.12): 1.358 ± 0.022 mPa·s
- viscosity (298 K, 101.3 kPa, x1 = 0.17): 1.345 ± 0.021 mPa·s
- viscosity (298 K, 101.3 kPa, x1 = 0.24): 1.228 ± 0.02 mPa·s
- viscosity (298 K, 101.3 kPa, x1 = 0.32): 1.036 ± 0.017 mPa·s
- viscosity (298 K, 101.3 kPa, x1 = 0.42): 0.814 ± 0.014 mPa·s
- viscosity (298.15 K, 101 kPa, x1 = 0.01): 0.962 ± 0.026 mPa·s
- viscosity (298.15 K, 101 kPa, x1 = 0.02): 1.012 ± 0.027 mPa·s
- viscosity (298.15 K, 101 kPa, x1 = 0.0292): 1.079 ± 0.0085 mPa·s
- viscosity (298.15 K, 101 kPa, x1 = 0.033): 1.121 ± 0.0094 mPa·s
- viscosity (298.15 K, 101 kPa, x1 = 0.04): 1.142 ± 0.031 mPa·s
- viscosity (298.15 K, 101 kPa, x1 = 0.0499): 1.216 ± 0.0096 mPa·s
- viscosity (298.15 K, 101 kPa, x1 = 0.0583): 1.227 ± 0.0096 mPa·s
- viscosity (298.15 K, 101 kPa, x1 = 0.06): 1.238 ± 0.033 mPa·s
- viscosity (298.15 K, 101 kPa, x1 = 0.0702): 1.298 ± 0.0099 mPa·s
- viscosity (298.15 K, 101 kPa, x1 = 0.072): 1.29 ± 0.011 mPa·s
- viscosity (298.15 K, 101 kPa, x1 = 0.0913): 1.329 ± 0.01 mPa·s
- viscosity (298.15 K, 101 kPa, x1 = 0.1): 1.371 ± 0.01 mPa·s and 1.342 ± 0.036 mPa·s
- viscosity (298.15 K, 101 kPa, x1 = 0.1025): 1.377 ± 0.029 mPa·s
- viscosity (298.15 K, 101 kPa, x1 = 0.12): 1.395 ± 0.01 mPa·s and 1.336 ± 0.011 mPa·s
- viscosity (298.15 K, 101 kPa, x1 = 0.1457): 1.373 ± 0.011 mPa·s
- viscosity (298.15 K, 101 kPa, x1 = 0.1499): 1.398 ± 0.01 mPa·s
- viscosity (298.15 K, 101 kPa, x1 = 0.17): 1.325 ± 0.011 mPa·s
- viscosity (298.15 K, 101 kPa, x1 = 0.1701): 1.382 ± 0.01 mPa·s
- viscosity (298.15 K, 101 kPa, x1 = 0.185): 1.351 ± 0.028 mPa·s
- viscosity (298.15 K, 101 kPa, x1 = 0.1999): 1.339 ± 0.01 mPa·s
- viscosity (298.15 K, 101 kPa, x1 = 0.2014): 1.309 ± 0.01 mPa·s
- viscosity (298.15 K, 101 kPa, x1 = 0.22): 1.299 ± 0.0099 mPa·s
- viscosity (298.15 K, 101 kPa, x1 = 0.24): 1.24 ± 0.011 mPa·s
- viscosity (298.15 K, 101 kPa, x1 = 0.2499): 1.235 ± 0.0096 mPa·s
- viscosity (298.15 K, 101 kPa, x1 = 0.2508): 1.212 ± 0.0095 mPa·s
- viscosity (298.15 K, 101 kPa, x1 = 0.2701): 1.186 ± 0.0093 mPa·s
- viscosity (298.15 K, 101 kPa, x1 = 0.3001): 1.113 ± 0.0089 mPa·s
- viscosity (298.15 K, 101 kPa, x1 = 0.301): 1.089 ± 0.0087 mPa·s
- viscosity (298.15 K, 101 kPa, x1 = 0.31): 1.067 ± 0.023 mPa·s
- viscosity (298.15 K, 101 kPa, x1 = 0.32): 1.083 ± 0.0096 mPa·s
- viscosity (298.15 K, 101 kPa, x1 = 0.3499): 0.9885 ± 0.0082 mPa·s
- viscosity (298.15 K, 101 kPa, x1 = 0.4): 0.8757 ± 0.0076 mPa·s
- viscosity (298.15 K, 101 kPa, x1 = 0.42): 0.8365 ± 0.0077 mPa·s
- viscosity (298.15 K, 101 kPa, x1 = 0.4502): 0.7742 ± 0.007 mPa·s
- viscosity (298.15 K, 101 kPa, x1 = 0.462): 0.7527 ± 0.0064 mPa·s
- viscosity (298.15 K, 101 kPa, x1 = 0.465): 0.737 ± 0.016 mPa·s
- viscosity (298.15 K, 101 kPa, x1 = 0.5001): 0.6861 ± 0.0066 mPa·s
- viscosity (298.15 K, 101 kPa, x1 = 0.535): 0.626 ± 0.013 mPa·s
- viscosity (298.15 K, 101 kPa, x1 = 0.538): 0.6247 ± 0.0055 mPa·s
- viscosity (298.15 K, 101 kPa, x1 = 0.55): 0.6261 ± 0.0061 mPa·s
- viscosity (298.15 K, 101 kPa, x1 = 0.6): 0.5446 ± 0.0058 mPa·s
- viscosity (298.15 K, 101 kPa, x1 = 0.616): 0.524 ± 0.011 mPa·s and 0.5104 ± 0.0047 mPa·s
- viscosity (298.15 K, 101 kPa, x1 = 0.7): 0.4407 ± 0.0053 mPa·s
- viscosity (298.15 K, 101 kPa, x1 = 0.729): 0.424 ± 0.009 mPa·s
